# Assay results: the BET-seq Pho4 binding data (Le et al. 2018)
# The list shows a part of the results. Values were computed here from the reads of four pooled replicates and scatter widely.
# Target: T1, Pho4 (S. cerevisiae) (UniProt P07270)
# T1 sequence: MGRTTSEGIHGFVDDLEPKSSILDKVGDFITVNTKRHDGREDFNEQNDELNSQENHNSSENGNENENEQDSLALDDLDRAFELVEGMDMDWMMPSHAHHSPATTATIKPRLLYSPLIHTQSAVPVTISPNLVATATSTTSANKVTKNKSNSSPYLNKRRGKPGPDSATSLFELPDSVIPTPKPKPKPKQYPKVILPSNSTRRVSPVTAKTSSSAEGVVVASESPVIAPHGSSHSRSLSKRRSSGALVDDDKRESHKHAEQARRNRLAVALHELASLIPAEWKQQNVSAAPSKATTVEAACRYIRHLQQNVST
# Test: relative binding free energy (BET-seq); higher = weaker binding
# Details: reference: library average
row,Sequence,relative binding free energy [kcal/mol]
1,GGAGTCACGTGACGTT,0.23
2,ATGGTCACGTGGCGAG,0.12
3,TTGGACACGTGTGTTT,0.12
4,TGCGACACGTGGTGAT,0
5,GCATGCACGTGGGTTA,-0.19
6,TAGTGCACGTGGGTAT,-0.14
7,ATGGCCACGTGGAGCG,-0.08
8,GGTGCCACGTGGCGTT,-0.17
9,GATATCACGTGGGTAT,0.11
10,AAATTCACGTGAAGGT,0.21
11,GGGGTCACGTGTTGGC,0.18
12,GGGTGCACGTGTACTG,-0.12
13,TTATCCACGTGGGGCG,-0.14
14,TCGGACACGTGACGGG,0.22
15,GTTGTCACGTGGCTCA,0.03
16,GTGTGCACGTGATCGG,0.09
17,ATATTCACGTGGTAAT,0.19
18,TACGACACGTGTGGGT,0.03
19,TGGAACACGTGGGAGA,-0.03
20,TAGAGCACGTGGGAAT,-0.15
21,CGAGGCACGTGGGGCA,-0.36
22,GTTTACACGTGTTTGC,0.22
23,AGTTTCACGTGCTTCA,0.36
24,TTTGACACGTGCTGAT,-0.06
25,CGGTGCACGTGGCGGA,-0.2
26,AGTAGCACGTGAGGTG,0.08

row,Sequence,relative binding free energy [kcal/mol]
1,GGGTGCACGTGTCTTT,-0.01
2,TGTTTCACGTGAAGCT,0.34
3,TCGTGCACGTGGTTAG,0.03
4,TTGGACACGTGGTTAA,0.11
5,TTGACCACGTGTTATG,0
6,CGTAACACGTGTGAGG,0.06
7,GTAGACACGTGATGTA,-0.01
8,TGTAACACGTGTGGTC,0.09
9,GATGTCACGTGTCGGG,0.11
10,ATAGGCACGTGGCGGA,-0.19
11,GGAGGCACGTGTGGGT,-0.02
12,GTATGCACGTGAGGGC,0.2
13,GACGGCACGTGGTCGT,0
14,TTAGGCACGTGCTCGT,-0.1
15,AGTTGCACGTGCAGCG,0.13
16,TTTTTCACGTGACTTC,0.54
17,AGGGGCACGTGGGCAC,-0.2
18,TTCGGCACGTGTAAAG,0.22
19,GGCGGCACGTGCTGTG,-0.08
20,CTTAACACGTGGGATT,-0.05
21,CATTTCACGTGCGGGG,0.32
22,AAGAGCACGTGGGTAG,-0.1
23,GAGTGCACGTGGTCTA,-0.06
24,AGTATCACGTGGCAGG,-0.08
25,GCTTTCACGTGTGGTT,0.31
26,TGGGACACGTGGATTT,0.21

row,Sequence,relative binding free energy [kcal/mol]
1,AGGGTCACGTGCATGT,0.12
2,CGTTTCACGTGGAGTT,0.37
3,AGGGTCACGTGAAGTC,0.32
4,TTGCCCACGTGTATGG,-0.02
5,TATAGCACGTGAGTCG,0.23
6,GTGGTCACGTGTAATG,0.14
7,CGGAGCACGTGTATGT,-0.16
8,TACATCACGTGATTGG,0.18
9,GAGTTCACGTGTTTCG,0.38
10,AGTGACACGTGTAGGC,0
11,TTTGGCACGTGCTTAT,-0.02
12,GTTGGCACGTGAGTTG,0.12
13,GTTATCACGTGGCGTA,0.22
14,AGGTTCACGTGAGGAA,0.3
15,GTGGGCACGTGAAGTG,0.29
16,GTTGGCACGTGAAAGT,0.26
17,CGGTACACGTGGTGTA,0.08
18,TGGGACACGTGGATTA,0.11
19,GCATTCACGTGTGTAG,0.31
20,TTCGGCACGTGGGATA,-0.18
21,GAAGGCACGTGGGTAT,-0.06
22,CGTGACACGTGTGCGT,-0.17
23,TTGTTCACGTGATTGG,0.44
24,TTCTTCACGTGGTATT,0.22
25,AATTGCACGTGGTGCG,0.03
26,GTTTTCACGTGCGTGG,0.2

row,Sequence,relative binding free energy [kcal/mol]
1,TTTTCCACGTGTGGAG,0.05
2,TGGTTCACGTGACGAA,0.47
3,AGTTGCACGTGTTATT,0.04
4,GACGGCACGTGAAGTG,0.33
5,TGGAGCACGTGTTAGA,-0.07
6,GCTTTCACGTGGCGGT,0.33
7,TTGGGCACGTGGTGAC,-0.06
8,ATTAGCACGTGGTGTT,-0.19
9,TTGTGCACGTGGTTAG,-0.04
10,GCCTGCACGTGGTGAG,0.06
11,TGTTCCACGTGCGGGG,-0.03
12,GTTCGCACGTGGTTCG,-0.08
13,ATTGGCACGTGTTCGT,-0.1
14,TTGGACACGTGGAAGG,0.11
15,TTCGTCACGTGTGGCA,0.09
16,TTAAGCACGTGTTCTG,-0.02
17,TGATGCACGTGAGGAA,0.19
18,GTCGTCACGTGTAGTA,0.11
19,AGTCTCACGTGGGTTT,0.21
20,AGGCTCACGTGGGCTG,0.03
21,AGTTCCACGTGTGTGC,0.16
22,TTGAACACGTGGGGCA,-0.21
23,GGTGTCACGTGTAAGT,0.2
24,TCGGTCACGTGCGGAG,0.12
25,AGTAGCACGTGGAGGG,-0.15
26,TTGAACACGTGGACTG,0.14

row,Sequence,relative binding free energy [kcal/mol]
1,GGTAGCACGTGGGTGT,-0.12
2,GAGTTCACGTGGAGGC,0.21
3,AGAGCCACGTGGTGTA,-0.19
4,GGAGTCACGTGCTGTA,0.08
5,GATTTCACGTGTAATA,0.37
6,AGGACCACGTGGGGTG,-0.35
7,TTAGTCACGTGGCGCG,0.13
8,GTCGGCACGTGTGGAG,-0.03
9,TGAGGCACGTGATTTA,0.01
10,GTGGACACGTGGCGTC,-0.03
11,AAGGTCACGTGGTGAA,0.05
12,GTTAGCACGTGTGGCC,0.08
13,AGTCACACGTGGTGGC,0.07
14,GAAATCACGTGGTGAG,0.32
15,GGGTACACGTGCGTGT,0
16,TGTCTCACGTGTTAAG,0.27
17,GGATGCACGTGATTTG,0.1
18,GGGAGCACGTGGTCCG,-0.08
19,TGCTTCACGTGTTATA,0.17
20,CGGCTCACGTGGTTTT,0.24
21,GCTCGCACGTGTGGGG,0
22,GGTCACACGTGTTAAT,0.31
23,GAAATCACGTGGTGGC,0.31
24,CTTATCACGTGAAGGG,0.32
25,TCCGGCACGTGTGGGA,-0.02
26,TGGGGCACGTGTAAGG,0.09

row,Sequence,relative binding free energy [kcal/mol]
1,CGTGGCACGTGGGTGA,-0.21
2,TTTACCACGTGGGATT,-0.2
3,GAGAGCACGTGTGGTC,-0.07
4,ATAGTCACGTGCTGTA,-0.03
5,TGTACCACGTGGTCAG,0.08
6,AACGTCACGTGGGTGT,0
7,ATTGTCACGTGTATAG,0.02
8,GATGTCACGTGAGGGG,0.3
9,TTGTTCACGTGAGGGT,0.43
10,TTTAACACGTGGTAAT,-0.18
11,TTTAGCACGTGCTGTG,-0.14
12,GTTGACACGTGGGGAA,-0.01
13,TATGACACGTGAATTT,0.21
14,GCTAACACGTGGTGTT,0.09
15,TCGGGCACGTGCGGAT,-0.07
16,TAAAACACGTGTGATT,0.19
17,TTCTGCACGTGTAGGC,0
18,TTCGTCACGTGGTAGT,0.04
19,CGGAGCACGTGGTCGG,-0.21
20,GATTACACGTGGCGGT,-0.02
21,ATATGCACGTGATGGA,0.18
22,TTAAGCACGTGGAGTC,-0.08
23,GAGTGCACGTGACGTG,0.14
24,GAGATCACGTGGGGAT,0.21
25,TTTAGCACGTGTTAGG,-0.12
26,GTGTCCACGTGGGAAG,0.03

row,Sequence,relative binding free energy [kcal/mol]
1,TGTTGCACGTGGGGAT,-0.17
2,TGGTCCACGTGATGTT,0.19
3,ATAAGCACGTGTGAAT,-0.06
4,GGGCTCACGTGTGGGC,0.27
5,GTGTCCACGTGATAGG,0.36
6,GGGTGCACGTGACGGT,0.16
7,TGTTACACGTGACGTG,0.16
8,TTATACACGTGTGTCT,0.09
9,TTTATCACGTGGATGA,0.22
10,ATGGACACGTGTGAAA,0.14
11,GTCTACACGTGTTTGA,0.19
12,TGTTACACGTGGTGAT,0.15
13,TGGTTCACGTGGTTAA,0.41
14,TGGATCACGTGGGTAT,0.11
15,TTAGACACGTGGTAAT,0.07
16,TTAATCACGTGCTAGG,0.08
17,AAGTTCACGTGCGGGC,0.3
18,TTGAGCACGTGAGGCA,0.14
19,TTTTTCACGTGGAGTG,0.32
20,AGTTGCACGTGGAGCT,0
21,GAGATCACGTGGTGAG,0.22
22,TTTGCCACGTGGTGTC,-0.18
23,GGGTTCACGTGGCTGT,0.24
24,CGGTACACGTGGTTGC,0.02
25,TCGCGCACGTGGTTGT,-0.1
26,GGATTCACGTGGAGTG,0.23

row,Sequence,relative binding free energy [kcal/mol]
1,TGTTGCACGTGAGTCT,0.14
2,TAGGGCACGTGAGAGC,0.04
3,GGTTACACGTGCGGGC,0.11
4,GGGTGCACGTGCGCGG,-0.12
5,GTGGGCACGTGAAGAT,0.18
6,AGGGTCACGTGTCGTA,0.25
7,TATTTCACGTGTGTTG,0.28
8,AGGGACACGTGTGAGT,0.14
9,AAGTTCACGTGATCAT,0.47
10,TCATTCACGTGTCGTG,0.31
11,GTTTGCACGTGCCGGG,-0.05
12,GATGTCACGTGTTAGA,0.11
13,CGTATCACGTGGTAGG,0.02
14,TCATGCACGTGGGGCT,-0.22
15,CTTTTCACGTGAGTTA,0.4
16,GGCGGCACGTGTTTGA,0.07
17,AGGGTCACGTGTGTTC,0.06
18,AGTTGCACGTGTGTTT,0.06
19,TATGTCACGTGTGGGT,0.12
20,GGGGTCACGTGAGGTC,0.39
21,ATCGTCACGTGGTGCT,-0.06
22,ATCCGCACGTGAGGTT,0.26
23,GGTCACACGTGGGGGG,-0.06
24,ATTACCACGTGGGGGT,-0.3
25,AGCTGCACGTGTTGTG,-0.01
26,TGTGGCACGTGAATTA,0.17

row,Sequence,relative binding free energy [kcal/mol]
1,GTCGTCACGTGTCGTG,0.07
2,CATTTCACGTGGTTGT,0.33
3,TAATCCACGTGTTTGT,-0.06
4,ATAGGCACGTGTTGAT,-0.23
5,TATTGCACGTGCGTCA,-0.06
6,AAAGGCACGTGGTCTT,-0.18
7,CACTTCACGTGTGTGG,0.15
8,CGGGCCACGTGGGAGT,-0.16
9,TGGGACACGTGGGGCA,-0.06
10,TGGCACACGTGTGATT,0.16
11,GTGAGCACGTGTCCGG,-0.05
12,GTTGTCACGTGTGCAA,0.11
13,TGGTTCACGTGACGGC,0.24
14,GCTTGCACGTGTAAGG,0.12
15,TATAACACGTGGGTTG,-0.14
16,GGGGCCACGTGGGTGG,-0.13
17,GTTAGCACGTGATGTC,0.31
18,TTGAACACGTGTCGTT,0.04
19,GGTGGCACGTGTGCGA,-0.13
20,CGTATCACGTGAGGTG,0.29
21,GTTATCACGTGTGGAG,0.06
22,ATATACACGTGTTATA,0
